# Read counts are not given, so values of variants with three or more changes are uncertain.
# B1: LINE1-full (parent)
# chain: UACGUAGGUGGUUUUCCCCUGAUAGUGCUAAGGGGGCCUGGAAGUUUGGACUGGGCAGAGCUCAACACAGCGUGGCAAAGUGGCUGUGGCUAGACUGCCUCUCUGGAUUCCUCGUCACUCAGCAGGGCAUCUCUGAGAGAAAUGCC
# B2: LINE1-mini (parent)
# chain: GGCAGAGCUCAACACAGCGUGGCAAAGUGGCUGUGGCUAGACUGCC
# Variants of: B1
# Assay: self-cleavage, relative activity (ratio to wild type); higher = more cleavage; in vitro, sequencing; the parent is a self-cleaving ribozyme
row,Variant,self-cleavage
1,UACGUAGGUGGUUUUCCCCUGAUAGUGCUAAGGGGGCCUGGAAGUUUGGACUGGGCAGAGCUCAACACAGCGUGGCAAAGUGGCUGUGGCUAGACUGCCUCUCUGGAUUCCUCGUCACACAGCAGGGCAUCUCUGGGGGAAAUGCC [U119A A136G A138G],2.53
2,UACGUAGGUGGUUUUCCCCUGAUAGUGCUAAGGGGGCCUGGAAGUUUGGACUGGGCAGAGCUCAACACAGCGUGGCAAAGUGGCUGUGGCUAGACUGCCUCUCUGGAUUCCUCGUCACACAGCAGGGCAUCUCUGAGAGGAGUGCC [U119A A140G A142G],0.34
3,UACGUAGGUGGUUUUCCCCUGAUAGUGCUAAGGGGGCCUGGAAGUUUGGACUGGGCAGAGCUCAACACAGCGUGGCAAAGUGGCUGUGGCUAGACUGCCUCUCUGGAUUCCUCGUCACCCGGCAGGGCAUCUCUGGGAGAAAUGCC [U119C A121G A136G],1.39
4,UACGUAGGUGGUUUUCCCCUGAUAGUGCUAAGGGGGCCUGGAAGUUUGGACUGGGCAGAGCUCAACACAGCGUGGCAAAGUGGCUGUGGCUAGACUGCCUCUCUGGAUUCCUCGUCACCCAGCGGGGCAUCUCCGAGAGAAAUGCC [U119C A124G U134C],1.21
5,UACGUAGGUGGUUUUCCCCUGAUAGUGCUAAGGGGGCCUGGAAGUUUGGACUGGGCAGAGCUCAACACAGCGUGGCAAAGUGGCUGUGGCUAGACUGCCUCUCUGGAUUCCUCGUCACCCAGCAGGGCAUCUCUUAGAGAAACGCC [U119C G135U U143C],0.04
6,UACGUAGGUGGUUUUCCCCUGAUAGUGCUAAGGGGGCCUGGAAGUUUGGACUGGGCAGAGCUCAACACAGCGUGGCAAAGUGGCUGUGGCUAGACUGCCUCUCUGGAUUCCUCGUCACUUAGCAGGGCAUCACUGGGAGAAAUGCC [C120U U132A A136G],0.48
7,UACGUAGGUGGUUUUCCCCUGAUAGUGCUAAGGGGGCCUGGAAGUUUGGACUGGGCAGAGCUCAACACAGCGUGGCAAAGUGGCUGUGGCUAGACUGCCUCUCUGGAUUCCUCGUCACUCCGCAGGGCUUCUCUGAGAGAGAUGCC [A121C A129U A141G],1.15
8,UACGUAGGUGGUUUUCCCCUGAUAGUGCUAAGGGGGCCUGGAAGUUUGGACUGGGCAGAGCUCAACACAGCGUGGCAAAGUGGCUGUGGCUAGACUGCCUCUCUGGAUUCCUCGUCACUCGGCAGGGCAUCUCUGAGGGUAAUGCC [A121G A138G A140U],2.51
9,UACGUAGGUGGUUUUCCCCUGAUAGUGCUAAGGGGGCCUGGAAGUUUGGACUGGGCAGAGCUCAACACAGCGUGGCAAAGUGGCUGUGGCUAGACUGCCUCUCUGGAUUCCUCGUCACUCGGCAGGGUAUCUCUGGGAGAAAUGCC [A121G C128U A136G],1.5
10,UACGUAGGUGGUUUUCCCCUGAUAGUGCUAAGGGGGCCUGGAAGUUUGGACUGGGCAGAGCUCAACACAGCGUGGCAAAGUGGCUGUGGCUAGACUGCCUCUCUGGAUUCCUCGUCACUCUGCUGGGCAUCUCAGAGAGAAAUGCC [A121U A124U U134A],1.41
11,UACGUAGGUGGUUUUCCCCUGAUAGUGCUAAGGGGGCCUGGAAGUUUGGACUGGGCAGAGCUCAACACAGCGUGGCAAAGUGGCUGUGGCUAGACUGCCUCUCUGGAUUCCUCGUCACUCUGCAGGGCAUCUCUGUGAGGAAUGCC [A121U A136U A140G],0.92
12,UACGUAGGUGGUUUUCCCCUGAUAGUGCUAAGGGGGCCUGGAAGUUUGGACUGGGCAGAGCUCAACACAGCGUGGCAAAGUGGCUGUGGCUAGACUGCCUCUCUGGAUUCCUCGUCACUCUGCAGGGCAUCUCUGAGAGAAGCGCC [A121U A142G U143C],1.91
13,UACGUAGGUGGUUUUCCCCUGAUAGUGCUAAGGGGGCCUGGAAGUUUGGACUGGGCAGAGCUCAACACAGCGUGGCAAAGUGGCUGUGGCUAGACUGCCUCUCUGGAUUCCUCGUCACUCAACGGGGCAUCUCUGGGAGAAAUGCC [G122A A124G A136G],1.25
14,UACGUAGGUGGUUUUCCCCUGAUAGUGCUAAGGGGGCCUGGAAGUUUGGACUGGGCAGAGCUCAACACAGCGUGGCAAAGUGGCUGUGGCUAGACUGCCUCUCUGGAUUCCUCGUCACUCAGUAGGGUAUCUCCGAGAGAAAUGCC [C123U C128U U134C],1.57
15,UACGUAGGUGGUUUUCCCCUGAUAGUGCUAAGGGGGCCUGGAAGUUUGGACUGGGCAGAGCUCAACACAGCGUGGCAAAGUGGCUGUGGCUAGACUGCCUCUCUGGAUUCCUCGUCACUCAGCCGGGCAUCUCUGAGAGGGAUGCC [A124C A140G A141G],1.51
16,UACGUAGGUGGUUUUCCCCUGAUAGUGCUAAGGGGGCCUGGAAGUUUGGACUGGGCAGAGCUCAACACAGCGUGGCAAAGUGGCUGUGGCUAGACUGCCUCUCUGGAUUCCUCGUCACUCAGCGGGGCACCUCUGGGAGAAAUGCC [A124G U130C A136G],0.71
17,UACGUAGGUGGUUUUCCCCUGAUAGUGCUAAGGGGGCCUGGAAGUUUGGACUGGGCAGAGCUCAACACAGCGUGGCAAAGUGGCUGUGGCUAGACUGCCUCUCUGGAUUCCUCGUCACUCAGCGGGGCAUCUCAGAGAGAAUUGCC [A124G U134A A142U],0.61

row,Variant,self-cleavage
1,UACGUAGGUGGUUUUCCCCUGAUAGUGCUAAGGGGGCCUGGAAGUUUGGACUGGGCAGAGCUCAACACAGCGUGGCAAAGUGGCUGUGGCUAGACUGCCUCUCUGGAUUCCUCGUCACUCAGCUGGGCUUCUCUGAGAGGAGUGCC [A124U A129U A140G A142G],1.66
2,UACGUAGGUGGUUUUCCCCUGAUAGUGCUAAGGGGGCCUGGAAGUUUGGACUGGGCAGAGCUCAACACAGCGUGGCAAAGUGGCUGUGGCUAGACUGCCUCUCUGGAUUCCUCGUCACUCAGCUGGGCUCCUCUGAGAGAAAUGGC [A124U A129U U130C C145G],1.44
3,UACGUAGGUGGUUUUCCCCUGAUAGUGCUAAGGGGGCCUGGAAGUUUGGACUGGGCAGAGCUCAACACAGCGUGGCAAAGUGGCUGUGGCUAGACUGCCUCUCUGGAUUCCUCGUCACUCAGCAAGGCAUCUCUGAGAGGAGUGCC [G125A A140G A142G],2.51
4,UACGUAGGUGGUUUUCCCCUGAUAGUGCUAAGGGGGCCUGGAAGUUUGGACUGGGCAGAGCUCAACACAGCGUGGCAAAGUGGCUGUGGCUAGACUGCCUCUCUGGAUUCCUCGUCACUCAGCAUGGCACCUCUGAGAGAAACGCC [G125U U130C U143C],1.27
5,UACGUAGGUGGUUUUCCCCUGAUAGUGCUAAGGGGGCCUGGAAGUUUGGACUGGGCAGAGCUCAACACAGCGUGGCAAAGUGGCUGUGGCUAGACUGCCUCUCUGGAUUCCUCGUCACUCAGCAGAGCAUCUCUGAGAGGAAUGGC [G126A A140G C145G],1.42
6,UACGUAGGUGGUUUUCCCCUGAUAGUGCUAAGGGGGCCUGGAAGUUUGGACUGGGCAGAGCUCAACACAGCGUGGCAAAGUGGCUGUGGCUAGACUGCCUCUCUGGAUUCCUCGUCACUCAGCAGGACACCUCAGAGAGAAAUGCC [G127A U130C U134A],0.98
7,UACGUAGGUGGUUUUCCCCUGAUAGUGCUAAGGGGGCCUGGAAGUUUGGACUGGGCAGAGCUCAACACAGCGUGGCAAAGUGGCUGUGGCUAGACUGCCUCUCUGGAUUCCUCGUCACUCAGCAGGUCAUCUCUGGGGGAAAUGCC [G127U A136G A138G],1.59
8,UACGUAGGUGGUUUUCCCCUGAUAGUGCUAAGGGGGCCUGGAAGUUUGGACUGGGCAGAGCUCAACACAGCGUGGCAAAGUGGCUGUGGCUAGACUGCCUCUCUGGAUUCCUCGUCACUCAGCAGGUCAUCUCUGGGUGAAAUGCC [G127U A136G A138U],1.39
9,UACGUAGGUGGUUUUCCCCUGAUAGUGCUAAGGGGGCCUGGAAGUUUGGACUGGGCAGAGCUCAACACAGCGUGGCAAAGUGGCUGUGGCUAGACUGCCUCUCUGGAUUCCUCGUCACUCAGCAGGGCUUCUCUGAGAGAGUUGCC [A129U A141G A142U],1.93
10,UACGUAGGUGGUUUUCCCCUGAUAGUGCUAAGGGGGCCUGGAAGUUUGGACUGGGCAGAGCUCAACACAGCGUGGCAAAGUGGCUGUGGCUAGACUGCCUCUCUGGAUUCCUCGUCACUCAGCAGGGCAACUCUGGGAGAAACGCC [U130A A136G U143C],1.36
11,UACGUAGGUGGUUUUCCCCUGAUAGUGCUAAGGGGGCCUGGAAGUUUGGACUGGGCAGAGCUCAACACAGCGUGGCAAAGUGGCUGUGGCUAGACUGCCUCUCUGGAUUCCUCGUCACUCAGCAGGGCAACUCUGAGAGAAGAGCC [U130A A142G U143A],0
12,UACGUAGGUGGUUUUCCCCUGAUAGUGCUAAGGGGGCCUGGAAGUUUGGACUGGGCAGAGCUCAACACAGCGUGGCAAAGUGGCUGUGGCUAGACUGCCUCUCUGGAUUCCUCGUCACUCAGCAGGGCACCUCUGAGGGAACUGCC [U130C A138G A142C],1.84
13,UACGUAGGUGGUUUUCCCCUGAUAGUGCUAAGGGGGCCUGGAAGUUUGGACUGGGCAGAGCUCAACACAGCGUGGCAAAGUGGCUGUGGCUAGACUGCCUCUCUGGAUUCCUCGUCACUCAGCAGGGCAUCCCUGAGAGGAAAGCC [U132C A140G U143A],0.94
14,UACGUAGGUGGUUUUCCCCUGAUAGUGCUAAGGGGGCCUGGAAGUUUGGACUGGGCAGAGCUCAACACAGCGUGGCAAAGUGGCUGUGGCUAGACUGCCUCUCUGGAUUCCUCGUCACUCAGCAGGGCAUCCCGGAGAGGAAUGCC [U132C U134G A140G],1.6
15,UACGUAGGUGGUUUUCCCCUGAUAGUGCUAAGGGGGCCUGGAAGUUUGGACUGGGCAGAGCUCAACACAGCGUGGCAAAGUGGCUGUGGCUAGACUGCCUCUCUGGAUUCCUCGUCACUCAGCAGGGCAUCUCCGUGAGAAAAGCC [U134C A136U U143A],1.99
16,UACGUAGGUGGUUUUCCCCUGAUAGUGCUAAGGGGGCCUGGAAGUUUGGACUGGGCAGAGCUCAACACAGCGUGGCAAAGUGGCUGUGGCUAGACUGCCUCUCUGGAUUCCUCGUCACUCAGCAGGGCAUCUCCCUGAGAAAUGCC [U134C G135C A136U],0.77
17,UACGUAGGUGGUUUUCCCCUGAUAGUGCUAAGGGGGCCUGGAAGUUUGGACUGGGCAGAGCUCAACACAGCGUGGCAAAGUGGCUGUGGCUAGACUGCCUCUCUGGAUUCCUCGUCACUCAGCAGGGCAUCUCUGAGGGAAGUACC [A138G A142G G144A],1.38

# Variants of: B2
# Assay: as above
row,Variant,self-cleavage
1,AGCCGCGCUCCACACAGCGUGGCAAAGUGGCUGUGGCUAGACUGCC [G1A A4C A6C A11C],0.03
2,AGCCGCGCUCAACACAGCGUGGCAGAGUGGCUGUGGCUAGACUGCC [G1A A4C A6C A25G],0.07
3,AGCCGUGCUCACCACAGCGUGGCAAAGUGGCUGCGGCUAGACUGCA [G1A A4C A6U A12C U34C C46A],0.03
4,AGCCGAGAUCAACACAGCGUGGCAAAGUGGCUGUGGCUACACUGCC [G1A A4C C8A G40C],0.27
5,AGCCGAGUUCAACACAGCGUGGCAAAGUGGCUGUGACUAGACUGCU [G1A A4C C8U G36A C46U],0.37
6,AGCCGAGCUUAACAUAGCGUGGCAAAGUGGCUGUGGUUAGACUGCC [G1A A4C C10U C15U C37U],0.06
7,AGCCGAGCUCAACAAAGCGUGGCAAACUGGCUGCGGCUAGACUGCC [G1A A4C C15A G27C U34C],0.05
8,AGCCGAGCUCAACACAGCGUGGUAAAGUGGCUGUGGCUAGACUGCC [G1A A4C C23U],0.08
9,AGCCGAGCUCAACACAGCGUGGUAAAGUGGCUGUGGCUUGAAUGCC [G1A A4C C23U A39U C42A],0.02
10,AGCCGAGCUCAACACAACGUGCCAAAGUGCCUGUGGCUAGACUGCC [G1A A4C G17A G22C G30C],0.03
11,AGCCGAGCUCAACACAGCGUGGCAAAGUGGCUGUAGCGACACUGCC [G1A A4C G35A U38G G40C],0.03
12,AGCGGUGCUCAACACAGCGUUGCAAAGUGGCUGUGGCUAGACUGCC [G1A A4G A6U G21U],0.11
13,AGCGGAGCUCUACACAGCGUUGCAAAGUGGAUGGGGCUAGACUGCC [G1A A4G A11U G21U C31A U34G],0
14,AGCGGAGCUCAACUCAGCGUAGCAAAGUGGCUGUGGCUAGACUGCC [G1A A4G A14U G21A],0.08
15,AGCGGAGCUCAACACUGCGUCGCAAAGUGGCUGUGGCUAGACUGCC [G1A A4G A16U G21C],0.22
